Here are results for 172 sequences from paper PMC6212790.

Some of the results follow. At the low end of the ranking, values are background and their order means little.

The test has as its target T1, GST-Rok-C97-191 (UniProt O34857).
T1 sequence: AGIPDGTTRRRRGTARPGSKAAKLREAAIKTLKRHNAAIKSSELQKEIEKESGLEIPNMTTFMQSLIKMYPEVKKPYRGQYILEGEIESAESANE
The test can be described thus: protein binding microarray.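 Note: rank score from −0.5 (least bound) to 0.5 (best bound).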 The following applies: Rok is a gene silencer of Bacillus subtilis; high values mean tight binding; most listed sequences are background and not binding sites; double strand, one strand shown.
In turn, CTTAGTAA displayed a binding signal of 0.202 E-score.

Consider GGAAGTCA, for which the binding signal was -0.092 E-score.

Turning to CTCGTGCC, the binding signal was -0.131 E-score.

Sequence AGAATCTA returned a binding signal of 0.322 E-score.

For CCCCGTAA, the binding signal is -0.0525 E-score.

Sequence GTTGGTAA registered a binding signal of 0.0565 E-score.

AAGCTTAT gave a binding signal of 0.0924 E-score.

On to CGTAAAAG, for which the binding signal was determined as 0.107 E-score.

On to GACGCTCA, for which the binding signal was -0.222 E-score.

AAAAAGAG: the binding signal is -0.0136 E-score.

For the sequence CGGATGAC, the binding signal is -0.049 E-score.

ATTTGCGA: the binding signal was found to be 0.173 E-score.

Sequence TCGGCGAA registered a binding signal of 0.043 E-score.

Take ACAGAAGG: the binding signal was -0.137 E-score.

In turn, ATACATAT displayed a binding signal of 0.377 E-score.

Sequence CGAACTCG registered a binding signal of 0.0971 E-score.

Turning to ATAATCAG, the binding signal is 0.0197 E-score.

ACTTAGTC gave a binding signal of 0.0416 E-score.

As to AGGTGGTG, the binding signal was 0.0311 E-score.

AACTATAG returned a binding signal of 0.327 E-score.

Take AGTGGCGC: the binding signal was -0.193 E-score.

Consider CAGATTAA, for which the binding signal was -0.0932 E-score.

Take GTGGCCAA: the binding signal is -0.106 E-score.

ATACCCAG displayed a binding signal of 0.0683 E-score.

AGGTACGA had a binding signal of 0.0629 E-score.

As for AAAGGAAA, the binding signal was -0.292 E-score.

Sequence CATAATCC had a binding signal of 0.109 E-score.

Turning to ACGGCACG, the binding signal was -0.211 E-score.

As for ATCCCCAA, the binding signal was -0.034 E-score.

For ACATGCAT, the binding signal was 0.271 E-score.

Regarding ACGGCAAC, the binding signal is -0.0874 E-score.

Take CCTTCGAC: the binding signal is -0.0957 E-score.

Consider AGCGTCGC, for which the binding signal was -0.0651 E-score.

Turning to AGAGAGTA, the binding signal is -0.0647 E-score.

On to GGGTGGAA, for which the binding signal was -0.291 E-score.

As to CCACCCAA, the binding signal is -0.261 E-score.

On to ACGACTGG, for which the binding signal was -0.0742 E-score.

As for CGCGCGGA, the binding signal is -0.126 E-score.

AAATTTCT: the binding signal came to 0.203 E-score.

Take CCCTTTAG: the binding signal is -0.173 E-score.

CATAATGG yielded a binding signal of 0.056 E-score.

Take AGCCGTTC: the binding signal was -0.05 E-score.

For AAGCCACA, the binding signal is -0.104 E-score.

For AACAGTCT, the binding signal was -0.162 E-score.

GCCTATTA: the binding signal stood at 0.01 E-score.

CGTACGTC displayed a binding signal of 0.022 E-score.

Consider GACTGCTA, for which the binding signal amounted to 0.0595 E-score.

In turn, ATGCTGAA gave a binding signal of 0.0556 E-score.

As to CAGCATAG, the binding signal was -0.177 E-score.

In turn, CAGTGGAA gave a binding signal of 0.0634 E-score.

Consider GAAGCACA, for which the binding signal was 0.00459 E-score.

With AGTGCGCA, the binding signal was found to be 0.0823 E-score.

In turn, GGAGATAC yielded a binding signal of 0.0834 E-score.

For the sequence CGGGACAG, the binding signal was -0.112 E-score.

Turning to GGCTTGTA, the binding signal was -0.0701 E-score.

ATGTTTGG: the binding signal is 0.0767 E-score.

For TGCGAACA, the binding signal was -0.0915 E-score.

Sequence ATATCCGA showed a binding signal of 0.247 E-score.

Turning to AAACAAAG, the binding signal stood at 0.137 E-score.

With CTTAAGGC, the binding signal was -0.0424 E-score.

ATAACCTG showed a binding signal of 0.119 E-score.

In the case of GTGAGCAC, the binding signal was -0.232 E-score.

Turning to CGCCATAC, the binding signal was -0.0217 E-score.

As for AGACCGAG, the binding signal is -0.161 E-score.

The sequence GACATTTA returned a binding signal of 0.0325 E-score.

In the case of GTGGGAAA, the binding signal is -0.137 E-score.

The sequence ATATGGAG showed a binding signal of 0.0982 E-score.

In turn, ACATTTAT had a binding signal of 0.162 E-score.

The sequence CAGTAAGA had a binding signal of 0.146 E-score.

Regarding CCCGAGTC, the binding signal is -0.256 E-score.

With GCGTCAAC, the binding signal is -0.19 E-score.

For the sequence CTCCTCAC, the binding signal was -0.215 E-score.

Sequence AGTTGTCC displayed a binding signal of 0.112 E-score.

Regarding GGTGTTGA, the binding signal was determined as 0.0774 E-score.

Take GTGCGCGA: the binding signal is -0.106 E-score.

Take CGCCAGCG: the binding signal is -0.123 E-score.

Take ATGGTAGA: the binding signal amounted to 0.448 E-score.

On to ACGCATCG, for which the binding signal is -0.204 E-score.

Turning to ACTATTAT, the binding signal stood at 0.364 E-score.

AGGTAACT: the binding signal came out at 0.312 E-score.

In the case of ACATCGGA, the binding signal was 0.00658 E-score.

Turning to CTGTGAGA, the binding signal is -0.127 E-score.

Sequence ACCGGATG displayed a binding signal of 0.0222 E-score.

GCGCGCAC registered a binding signal of 0.0896 E-score.

Take AGTCAGTA: the binding signal came to 0.149 E-score.

On to CCAAATCC, for which the binding signal is -0.11 E-score.

Sequence ACACAACT returned a binding signal of 0.0324 E-score.

ATGACTGC returned a binding signal of 0.0218 E-score.

In turn, CGTCAGTA yielded a binding signal of 0.011 E-score.

For the sequence GCGTACAA, the binding signal was -0.0292 E-score.

The sequence CTCTCATC yielded a binding signal of 0.119 E-score.

Turning to GGCCTTAA, the binding signal was -0.234 E-score.

Regarding CAGTCAAG, the binding signal was -0.115 E-score.

With AACACAAT, the binding signal is -0.117 E-score.

Regarding CCTGACAA, the binding signal is -0.0451 E-score.

In the case of CAATTAAG, the binding signal was -0.0793 E-score.

In the case of TAGCATGA, the binding signal amounted to 0.037 E-score.

The sequence GATGTTTA showed a binding signal of 0.0206 E-score.

Regarding TCAAATCA, the binding signal is -0.157 E-score.

The sequence ATAGCGCA showed a binding signal of 0.176 E-score.

ATCTGTAA came in with a binding signal of 0.106 E-score.

Consider TGCCGCCA, for which the binding signal is -0.101 E-score.

In the case of TGGTGTAA, the binding signal was -0.0152 E-score.

Consider CATATACA, for which the binding signal was 0.22 E-score.

On to GACAGAAA, for which the binding signal is -0.0766 E-score.

Take ATGGACCA: the binding signal was -0.193 E-score.

On to AGGCGTTG, for which the binding signal is -0.182 E-score.

ACGTATAC returned a binding signal of 0.137 E-score.

CACACCAA: the binding signal stood at 0.0569 E-score.

Consider GATCCACA, for which the binding signal is -0.0305 E-score.

With GGACTCCC, the binding signal was -0.202 E-score.

Sequence CGGGTAGA had a binding signal of 0.165 E-score.

For CACTCTAA, the binding signal is -0.143 E-score.

ACGGAGCT: the binding signal is -0.129 E-score.

For ACTCCCGC, the binding signal was -0.118 E-score.

TAAGGCAA: the binding signal worked out at 0.0603 E-score.

ATAAAAAA returned a binding signal of 0.271 E-score.

Consider CTGACCCC, for which the binding signal was -0.324 E-score.

In turn, CACAAATC came in with a binding signal of 0.0854 E-score.

On to GAAATCCC, for which the binding signal is -0.152 E-score.

CCCCTACC: the binding signal was -0.253 E-score.

With CCTCTTTC, the binding signal was -0.037 E-score.

Take CCTCCACG: the binding signal was -0.196 E-score.

On to CACGAGCC, for which the binding signal is -0.25 E-score.

Consider ATGACGAC, for which the binding signal was -0.13 E-score.

With CGACCCCA, the binding signal is -0.207 E-score.

With CATGTTCC, the binding signal was -0.0917 E-score.

The sequence CTATAGAG yielded a binding signal of 0.00791 E-score.

In the case of CCGGACTA, the binding signal was -0.0594 E-score.

Take GTCTAAGA: the binding signal is -0.0359 E-score.

GAACCATA gave a binding signal of 0.0821 E-score.

ACTGGAAG: the binding signal was 0.00411 E-score.

Turning to GCGACCGA, the binding signal was -0.313 E-score.

AACGATTG came in with a binding signal of 0.0381 E-score.

As to AACTATCC, the binding signal turned out to be 0.224 E-score.

Regarding GCGGATGA, the binding signal was -0.151 E-score.

As for AGGCCACA, the binding signal is -0.202 E-score.

With GAGTTTCC, the binding signal was -0.0642 E-score.

Sequence ACTAGCAG registered a binding signal of 0.138 E-score.

With AGTGTGAC, the binding signal is -0.247 E-score.

As to AGTGTGAA, the binding signal is 0.168 E-score.

Take GCTGTAAC: the binding signal was -0.0357 E-score.

Take CCGTGGCA: the binding signal was -0.196 E-score.

ATGTTGAA registered a binding signal of 0.0522 E-score.

AGAAGAAT: the binding signal came out at 0.086 E-score.

On to CTTATGTA, for which the binding signal was 0.0579 E-score.

As for GGGTTGCA, the binding signal is -0.245 E-score.

TGCATCCA: the binding signal is -0.0993 E-score.

As for AATCGCTG, the binding signal is -0.11 E-score.

Consider CAGTGAAC, for which the binding signal is -0.0197 E-score.

On to AGTGACCC, for which the binding signal was -0.29 E-score.

For the sequence CTTTCAGC, the binding signal is -0.00114 E-score.

Turning to ATAGGAGG, the binding signal is -0.135 E-score.

CGTTGCTC: the binding signal was -0.0643 E-score.

In the case of CGTAAAGC, the binding signal was -0.0457 E-score.

For GACACGTA, the binding signal is -0.114 E-score.

As to CTAGATCC, the binding signal was 0.212 E-score.

On to ATTGGAAA, for which the binding signal is -0.0288 E-score.

Regarding CTTGTTCC, the binding signal worked out at 0.0569 E-score.

In turn, ATCGATTC displayed a binding signal of 0.123 E-score.

As to AAGGAAGA, the binding signal was -0.0907 E-score.

In the case of GGGATTCA, the binding signal was -0.147 E-score.

With CCAACACA, the binding signal turned out to be 0.0764 E-score.

Regarding GTGGATGA, the binding signal was -0.12 E-score.

For AAATGAGC, the binding signal was -0.0788 E-score.

GGCCTGGA: the binding signal is -0.201 E-score.

For GCTTAGCC, the binding signal is -0.0474 E-score.

For AGCGGGAT, the binding signal was -0.0346 E-score.

For the sequence ATACCGAT, the binding signal was 0.305 E-score.

Regarding GCGAGCGC, the binding signal is -0.207 E-score.

The sequence AACTAGCA gave a binding signal of 0.346 E-score.

GGGGTTAA: the binding signal is -0.0586 E-score.
